{"source": "the supplement of paper PMC8728848", "binders": {"B1": {"name": "Epa1-NP-mutant-E227A (Candida glabrata), Q6VBJ0 (protein)", "chain": "MILNPALFLNKCVCIYTTLILLLLTNGGYATSSNDISLASKDPTTFPLGCSPDITTPKKGLSMELYSYDFRKKGSYPCWDAAYLDPNYPRTGYKSHRLLAKVDGVTGNINFYYHATKGCTPQLGHLPASYNYPKPLTMTNFTMLLYGYFRPKVTGFHTFTISADDLLFVNFGAGNAFDCCRRDSSADHFGNYQAYAIWGSKTAKDELTVHLDAGVYYPIRLFYNNRAYDGALSFTFKTESNENTVSDFSEYFFSLDDTEEGCPGLISYDSSCASVKTSKIIGIDYHTETPNENLVPITKTIYHLGIPCTGTTTTPLCGSGFYDPLANKCVTINTSSTSSVTKTTSHTTSKEVSFHSSISSQKTLIPKSIPSPYGPIKSQSIPTEMETSSEISSSEYAFSDVISTPSHSPYTKKHSSLNSSSYTSTVIHSLTSYSISQGIFSTSLSEQNITSKSSTDKFSTATSMSNNITQSSIIISQFSTNNENYTTTSMHTSSDKISTETLNNSISTTTSILFSNSSTILKNNTTIISSDKDTHYHPVNPTIVCSTNKTEIICASITQPSISNSNNHWSSSVLKFNSTTVRSTLPSSAGSNETSINVPFSSSTESNTSTSSTSTSNSKMVRSTLPSSAGSNETSISVPFSSSTESNTSTSSTSTSNSKMVRSTLPSSAGSNETSINVPFSSSTESNTSTSSTSTSNSKTVRSTPFSSAGIIMTSLSQRNNKSASSYASSNSKCYNTADSCRKVHSTPSYLLTSSYTSEGVDYDCSLVSTKLKINDTNCVNNKHTTKSCLKTSVTTTIPTLEIKTARKSSSNTIGLHSYPTSSPNKSISSAPIIGYISSFKTIKTASPSYQTSDLTTITTITSLNNPGSTAVENTHESNDKSRKTSSNDISSKHSVIKETKDAVESSNKSHQTNTLKCSSIIIASSSHNSYESLGGTTLTLTLSKVYSPQNNDTLPFLEISEVNPSRTVLPESSKMMQYLTSTEERNKTARNTIATNIVSISTFHFEGEGNAIRMGYTQLLLMLIGIIVMNIGT"}}, "test_in_all_cases": "glycan array binding signal (z-score within array); higher = stronger binding", "conditions_in_all_cases": "glycan notation: IUPAC condensed, linker removed; mutation: E227A", "key": {"[1]": {"target": "Fuc(a1-2)[Gal(a1-3)]Gal(b1-4)GlcNAc(b1-2)Man(a1-3)[Fuc(a1-2)[Gal(a1-3)]Gal(b1-4)GlcNAc(b1-2)Man(a1-6)]Man(b1-4)GlcNAc(b1-4)GlcNAc", "method_in_brief": "(§1)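 The binding signal is a Z-score computed within each array and averaged over linkers. Arrays of the same protein sequence at different concentrations or buffers were also averaged together. Data originate from 3228 arrays in the Consortium for Functional Glycomics database, kept only where the protein sequence was available.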"}, "[2]": {"target": "Fuc(a1-2)[Gal(a1-3)]Gal(b1-4)GlcNAc(b1-2)Man(a1-3)[Fuc(a1-2)[Gal(a1-3)]Gal(b1-4)GlcNAc(b1-2)Man(a1-6)]Man(b1-4)GlcNAc(b1-4)[Fuc(a1-6)]GlcNAc", "method_in_brief": "as §1"}, "[3]": {"target": "Fuc(a1-2)[Gal(a1-3)]Gal(b1-4)GlcNAc(b1-3)GalNAc", "method_in_brief": "as §1"}, "[4]": {"target": "Fuc(a1-2)[Gal(a1-3)]Gal(b1-4)GlcNAc(b1-3)[Fuc(a1-2)[Gal(a1-3)]Gal(b1-4)GlcNAc(b1-6)]GalNAc", "method_in_brief": "as §1"}, "[5]": {"target": "Fuc(a1-2)[Gal(a1-3)]Gal(b1-4)GlcNAc(b1-6)GalNAc", "method_in_brief": "as §1"}, "[6]": {"target": "Fuc(a1-2)[Gal(a1-3)]Gal(b1-4)[Fuc(a1-3)]Glc", "method_in_brief": "as §1"}, "[7]": {"target": "Fuc(a1-2)[Gal(a1-3)]Gal(b1-4)[Fuc(a1-3)]GlcNAc", "method_in_brief": "as §1"}, "[8]": {"target": "Fuc(a1-2)[Gal(a1-3)]Gal(b1-4)[Fuc(a1-3)]GlcNAc(b1-3)GalNAc", "method_in_brief": "as §1"}, "[9]": {"target": "Fuc(a1-2)[Gal(a1-4)]Gal(b1-4)GlcNAc", "method_in_brief": "as §1"}, "[10]": {"target": "Fuc(a1-2)[GalNAc(a1-3)]Gal", "method_in_brief": "as §1"}, "[11]": {"target": "Fuc(a1-2)[GalNAc(a1-3)]Gal(b1-3)GalNAc(a1-3)[Fuc(a1-2)]Gal(b1-4)GlcNAc", "method_in_brief": "as §1"}, "[12]": {"target": "Fuc(a1-2)[GalNAc(a1-3)]Gal(b1-3)GalNAc(b1-3)Gal(a1-4)Gal(b1-4)Glc", "method_in_brief": "as §1"}, "[13]": {"target": "Fuc(a1-2)[GalNAc(a1-3)]Gal(b1-3)GlcNAc", "method_in_brief": "as §1"}, "[14]": {"target": "Fuc(a1-2)[GalNAc(a1-3)]Gal(b1-3)GlcNAc(b1-2)Man(a1-3)[Fuc(a1-2)[GalNAc(a1-3)]Gal(b1-3)GlcNAc(b1-2)Man(a1-6)]Man(b1-4)GlcNAc(b1-4)GlcNAc", "method_in_brief": "as §1"}, "[15]": {"target": "Fuc(a1-2)[GalNAc(a1-3)]Gal(b1-3)GlcNAc(b1-2)Man(a1-3)[Fuc(a1-2)[GalNAc(a1-3)]Gal(b1-3)GlcNAc(b1-2)Man(a1-6)]Man(b1-4)GlcNAc(b1-4)[Fuc(a1-6)]GlcNAc", "method_in_brief": "as §1"}, "[16]": {"target": "Fuc(a1-2)[GalNAc(a1-3)]Gal(b1-3)GlcNAc(b1-3)GalNAc", "method_in_brief": "as §1"}, "[17]": {"target": "Fuc(a1-2)[GalNAc(a1-3)]Gal(b1-3)GlcNAc(b1-6)GalNAc", "method_in_brief": "as §1"}, "[18]": {"target": "Fuc(a1-2)[GalNAc(a1-3)]Gal(b1-4)Glc", "method_in_brief": "as §1"}, "[19]": {"target": "Fuc(a1-2)[GalNAc(a1-3)]Gal(b1-4)GlcNAc", "method_in_brief": "as §1"}, "[20]": {"target": "Fuc(a1-2)[GalNAc(a1-3)]Gal(b1-4)GlcNAc(b1-2)Man", "method_in_brief": "as §1"}, "[21]": {"target": "Fuc(a1-2)[GalNAc(a1-3)]Gal(b1-4)GlcNAc(b1-2)Man(a1-3)[Fuc(a1-2)[GalNAc(a1-3)]Gal(b1-4)GlcNAc(b1-2)Man(a1-6)]Man(b1-4)GlcNAc(b1-4)GlcNAc", "method_in_brief": "as §1"}, "[22]": {"target": "Fuc(a1-2)[GalNAc(a1-3)]Gal(b1-4)GlcNAc(b1-2)Man(a1-3)[Fuc(a1-2)[GalNAc(a1-3)]Gal(b1-4)GlcNAc(b1-2)Man(a1-6)]Man(b1-4)GlcNAc(b1-4)[Fuc(a1-6)]GlcNAc", "method_in_brief": "as §1"}, "[23]": {"target": "Fuc(a1-2)[GalNAc(a1-3)]Gal(b1-4)GlcNAc(b1-3)Gal(b1-4)GlcNAc", "method_in_brief": "as §1"}, "[24]": {"target": "Fuc(a1-2)[GalNAc(a1-3)]Gal(b1-4)GlcNAc(b1-3)Gal(b1-4)GlcNAc(b1-3)Gal(b1-4)GlcNAc", "method_in_brief": "as §1"}, "[25]": {"target": "Fuc(a1-2)[GalNAc(a1-3)]Gal(b1-4)GlcNAc(b1-3)GalNAc", "method_in_brief": "as §1"}, "[26]": {"target": "Fuc(a1-2)[GalNAc(a1-3)]Gal(b1-4)GlcNAc(b1-3)[Fuc(a1-2)[GalNAc(a1-3)]Gal(b1-4)GlcNAc(b1-6)]GalNAc", "method_in_brief": "as §1"}, "[27]": {"target": "Fuc(a1-2)[GalNAc(a1-3)]Gal(b1-4)GlcNAc(b1-6)GalNAc", "method_in_brief": "as §1"}, "[28]": {"target": "Fuc(a1-2)[GalNAc(a1-3)]Gal(b1-4)[Fuc(a1-3)]GlcNAc", "method_in_brief": "as §1"}, "[29]": {"target": "Fuc(a1-2)[GalNAc(a1-3)]Gal(b1-4)[Fuc(a1-3)]GlcNAc(b1-3)GalNAc", "method_in_brief": "as §1"}, "[30]": {"target": "Fuc(a1-2)[GalNAc(a1-4)]Gal(b1-4)GlcNAc", "method_in_brief": "as §1"}}, "note": "This is one part of the list.", "data": [{"binder": "B1", "values": [{"measurement": "glycan array binding signal (z-score)", "setting": "[1]", "result": -0.196}, {"measurement": "glycan array binding signal (z-score)", "setting": "[2]", "result": -0.189}, {"measurement": "glycan array binding signal (z-score)", "setting": "[3]", "result": -0.204}, {"measurement": "glycan array binding signal (z-score)", "setting": "[4]", "result": -0.214}, {"measurement": "glycan array binding signal (z-score)", "setting": "[5]", "result": -0.203}, {"measurement": "glycan array binding signal (z-score)", "setting": "[6]", "result": -0.211}, {"measurement": "glycan array binding signal (z-score)", "setting": "[7]", "result": -0.176}, {"measurement": "glycan array binding signal (z-score)", "setting": "[8]", "result": -0.168}, {"measurement": "glycan array binding signal (z-score)", "setting": "[9]", "result": -0.221}, {"measurement": "glycan array binding signal (z-score)", "setting": "[10]", "result": -0.207}, {"measurement": "glycan array binding signal (z-score)", "setting": "[11]", "result": -0.225}, {"measurement": "glycan array binding signal (z-score)", "setting": "[12]", "result": -0.189}, {"measurement": "glycan array binding signal (z-score)", "setting": "[13]", "result": -0.205}, {"measurement": "glycan array binding signal (z-score)", "setting": "[14]", "result": -0.137}, {"measurement": "glycan array binding signal (z-score)", "setting": "[15]", "result": -0.164}, {"measurement": "glycan array binding signal (z-score)", "setting": "[16]", "result": -0.197}, {"measurement": "glycan array binding signal (z-score)", "setting": "[17]", "result": -0.223}, {"measurement": "glycan array binding signal (z-score)", "setting": "[18]", "result": -0.2}, {"measurement": "glycan array binding signal (z-score)", "setting": "[19]", "result": -0.19}, {"measurement": "glycan array binding signal (z-score)", "setting": "[20]", "result": -0.238}, {"measurement": "glycan array binding signal (z-score)", "setting": "[21]", "result": -0.179}, {"measurement": "glycan array binding signal (z-score)", "setting": "[22]", "result": -0.181}, {"measurement": "glycan array binding signal (z-score)", "setting": "[23]", "result": -0.211}, {"measurement": "glycan array binding signal (z-score)", "setting": "[24]", "result": -0.158}, {"measurement": "glycan array binding signal (z-score)", "setting": "[25]", "result": -0.215}, {"measurement": "glycan array binding signal (z-score)", "setting": "[26]", "result": -0.177}, {"measurement": "glycan array binding signal (z-score)", "setting": "[27]", "result": -0.201}, {"measurement": "glycan array binding signal (z-score)", "setting": "[28]", "result": -0.13}, {"measurement": "glycan array binding signal (z-score)", "setting": "[29]", "result": -0.212}, {"measurement": "glycan array binding signal (z-score)", "setting": "[30]", "result": -0.188}]}]}
